# Measured values taken from PMC6664820, “Novel natural and synthetic inhibitors of solute carriers SGLT1 and SGLT2” (Pharmacology Research & Perspectives, 2019).
# The campaign covered roughly 1,900 compounds. About 40 (2%) showed an effect of 50% or more. Some of the results follow.
# Biological target: human SGLT1 (hSGLT1) (human, UniProt P13866)
# Assay: primary screen, percent of control activity; higher = less effect of the substance
# Set-up: single well
# Conditions: 50 µM
# Experimental: Two days before the assay, CHO‐wild type and CHO‐hSGLT1 cells were seeded in maintenance medium at 25 000 cells/well in clear‐bottom black 96‐well cell culture plates. Before the assay, cells were washed 3 times with 150 μL/well D‐glucose free DMEM with 0.3% (w/v) BSA. Library compounds at 50 μmol/L (singlicate) prepared in D‐glucose free DMEM with 160 μmol/L 1‐NBD‐glucose and 0.3% (w/v) BSA and negative controls (triplicate) were added at 100 μL/well and placed in a humidified incubator at 37°C with 5% CO2 for 90 minutes. Next, cells were washed 3 times with DMEM with 0.3% (w/v) BSA (150 μL/well). Care was taken to remove all medium after the last wash. Finally, 1‐NBD‐glucose was extracted from the cells by adding 10 μL/well isopropanol and orbital shaking for 5 minutes at 600 rpm, followed by incubation in the dark for 30 minutes. Fluorescence was measured on a Tecan Infinite M200 Microplate Reader (Tecan, Männedorf, Switzerland) with excitation at 445 nm and emission at 525 nm. The amount of 1‐NBD‐glucose taken up by the CHO‐wild type or CHO‐hSGLT1 cells in the presence or absence of test compounds was interpolated from 1‐NBD‐glucose calibration standards. The background uptake by CHO‐wild type was subtracted from the uptake by CHO‐hSGLT1. Background corrected uptake with test compound was expressed as a percentage of corrected uptake without test compound.
# human SGLT1 (hSGLT1), sequence (P13866 whole entry, looked up): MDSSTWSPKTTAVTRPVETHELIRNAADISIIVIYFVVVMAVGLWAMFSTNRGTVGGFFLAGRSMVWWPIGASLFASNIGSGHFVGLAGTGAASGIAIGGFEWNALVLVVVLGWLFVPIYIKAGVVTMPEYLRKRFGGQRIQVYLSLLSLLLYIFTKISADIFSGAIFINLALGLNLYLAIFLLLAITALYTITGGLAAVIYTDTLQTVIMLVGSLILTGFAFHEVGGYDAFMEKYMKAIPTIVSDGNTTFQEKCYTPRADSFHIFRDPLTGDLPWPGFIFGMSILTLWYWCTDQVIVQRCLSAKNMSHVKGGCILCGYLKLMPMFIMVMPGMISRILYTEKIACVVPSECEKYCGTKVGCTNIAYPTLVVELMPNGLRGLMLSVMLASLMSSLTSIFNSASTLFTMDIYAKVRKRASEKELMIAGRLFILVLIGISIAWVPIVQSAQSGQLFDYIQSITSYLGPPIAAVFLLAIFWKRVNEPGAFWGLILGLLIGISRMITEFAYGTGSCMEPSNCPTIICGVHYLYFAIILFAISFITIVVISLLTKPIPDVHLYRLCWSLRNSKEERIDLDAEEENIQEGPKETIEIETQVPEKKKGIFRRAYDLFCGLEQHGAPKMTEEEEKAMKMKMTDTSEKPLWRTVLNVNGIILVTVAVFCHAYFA
row,Compound,NORMALIZED SGLT1 ACTIVITY (%)
1,COc1cc2c(cc1O)C[C@H]1c3c(cc(O)c(OC)c3-2)CCN1C,135%
2,CN1[C@H]2C[C@H](OC(=O)[C@H](CO)c3ccccc3)C[C@@H]1[C@@H](O)C2,120%
3,CO[C@H]1C[C@H](O[C@H]2CC[C@@]3(C)[C@H](CC[C@@H]4[C@@H]3CC[C@]3(C)[C@@H](C5=CC(=O)OC5)[C@@H](OC(C)=O)C[C@]43O)C2)O[C@@H](C)[C@@H]1O,70%
4,CO[C@H]1[C@H](O)[C@H](O[C@H]2CC[C@@]3(C=O)[C@H](CC[C@@H]4[C@@H]3CC[C@]3(C)[C@@H](C5=CC(=O)OC5)CC[C@]43O)C2)O[C@@H](C)[C@@H]1O,111%
5,C[C@@H]1O[C@@H](O[C@H]2CC[C@]3(C=O)[C@H]4CC[C@]5(C)[C@@H](C6=CC(=O)OC6)CC[C@]5(O)[C@@H]4CC[C@]3(O)C2)[C@H](O)[C@H](O)[C@H]1O,103%
6,O=c1cccc2n1C[C@@H]1CNC[C@H]2C1,107%
7,CN1C[C@H](CNC(=O)OCc2ccccc2)C[C@@H]2c3cccc4c3c(cn4C)C[C@H]21,93%
8,CC(=O)O[C@H]1CC[C@@]2(C)[C@H](CC[C@@H]3[C@@H]2CC[C@]2(C)[C@@H](C4=CC(=O)OC4)[C@@H](OC(C)=O)C[C@]32O)C1,124%
9,O=C1C[C@@H]2OCC=C3CN4CC[C@]56c7ccccc7N1[C@H]5[C@H]2[C@H]3C[C@H]46,72%
10,C#C[C@]1(O)CC[C@H]2[C@@H]3CCC4=CC(=O)CC[C@]4(C)[C@H]3CC[C@@]21C,87%
11,C[C@]12CC[C@H]3[C@@H](CC[C@]4(O)C[C@@H](O)CC[C@]34C=O)[C@@]1(O)CC[C@@H]2C1=CC(=O)OC1,87%
12,CC[C@H]1[C@@H]2C[C@H]3[C@@H]4N(C)c5ccccc5[C@]45C[C@@H]([C@H]2[C@H]5O)N3[C@@H]1O,166%
13,CC(C)C[C@H](CN)CC(=O)O,115%
14,CO[C@H]1[C@H](O)[C@H](O[C@H]2CC[C@@]3(C)[C@H](CC[C@@H]4[C@@H]3CC[C@]3(C)[C@@H](C5=CC(=O)OC5)CC[C@]43O)C2)O[C@@H](C)[C@@H]1O,99%
15,C[C@]12CC[C@H](Cl)C[C@@H]1CC[C@@H]1[C@@H]2CC[C@]2(C)C(=O)CC[C@@H]12,161%
16,CCN1C[C@]2(COC)[C@H](O)C[C@H](OC)[C@@]34[C@@H]5C[C@@]6(O)[C@H](OC(=O)c7ccccc7)[C@@H]5[C@@](OC(C)=O)([C@@H]([C@H](OC)[C@H]23)[C@@H]14)[C@@H](O)[C@@H]6OC,80%
17,CO[C@H]1C[C@H](O[C@H]2CC[C@]3(C=O)[C@H]4CC[C@]5(C)[C@@H](C6=CC(=O)OC6)CC[C@]5(O)[C@@H]4CC[C@]3(O)C2)O[C@H](C)[C@H]1O,105%
18,C[C@@H]1O[C@@H](O[C@H]2C[C@@H](O)[C@]3(CO)[C@H]4[C@H](O)C[C@]5(C)[C@@H](C6=CC(=O)OC6)CC[C@]5(O)[C@@H]4CC[C@]3(O)C2)[C@H](O)[C@H](O)[C@H]1O,80%
19,[N-]=[N+]=CC(=O)OC[C@H](N)C(=O)O,98%
20,COc1cc2c(cc1OC)[C@@]13CCN4CC5=CCO[C@H]6CC(=O)N2[C@H]1[C@H]6[C@H]5C[C@H]43,120%
21,CC(=O)O[C@H]1C[C@H](O[C@H]2[C@@H](O)C[C@H](O[C@H]3[C@@H](O)C[C@H](O[C@H]4CC[C@@]5(C)[C@H](CC[C@@H]6[C@@H]5C[C@@H](O)[C@]5(C)[C@@H](C7=CC(=O)OC7)CC[C@]65O)C4)O[C@@H]3C)O[C@@H]2C)O[C@H](C)[C@H]1O[C@@H]1O[C@H](CO)[C@@H](O)[C@H](O)[C@H]1O,110%
